According to PubChem BioAssay AID1845206 (Molecular Pharmacology Branch, DTP, NCI, 2023):
Some entries of the source have several records that differ or are many. They are shown here; other results are not. There may be further records. The values listed for one entry repeat one measurement (runs, samples, wells, individuals or studies). Dates in brackets are months of testing.

Tested on: NCI-H1618 multicellular tumor spheroid viability
Assay: Anticancer human tumor NCI-H1618 cell line growth inhibition;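 further: spheroids exposed to agents for 7 days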
Conditions: for IC50: compound alone; for viability, T/C: stronger effect = lower value
Excerpt: Multicellular complex tumor spheroid response to DNA repair inhibitors in combination with DNA-damaging drugs
This study explores the anticancer activities of DNA-damaging drugs and inhibitors of DNA damage repair, both as single agents and in combinations. Complex tumor spheroids comprised of malignant cells, endothelial cells and mesenchymal stem cells served as an in vitro model for human solid tumors. This model system incorporates physiologically relevant features and patient-derived or established malignant cell lines with clinically relevant genetic alterations from many tumor types. Twenty-six patient-derived or established malignant cell lines were evaluated representing sarcoma, melanoma, small cell lung cancer (SCLC), non-small cell lung cancer (NSCLC), as well as bladder, ovarian and pancreatic cancers. The concentration ranges selected for each drug and investigational agent were based upon clinically achievable concentrations if the clinical Cmax of the agent was known.
Compounds. The drugs and compounds olaparib (NSC753686), talazoparib (NSC767125), berzosertib (NSC777718), elimusertib (NSC800525), nedisertib (NSC802822), VX-984 (NSC792969), AZD-1390 (NSC803789), temozolomide (NSC362856), topotecan (NSC609699), trabectedin (NSC813783), staurosporine (NSC755774), and gemcitabine (NSC613327) were obtained from the National Cancer Institute (NCI) Developmental Therapeutics Program Chemical Repository. The FDA-approved anticancer drug set is available from the Developmental Therapeutics Program at https://dtp.cancer.gov/organization/dscb/obtaining/available_plates.htm. […] The stock solutions were prepared in dimethyl sulfoxide (DMSO, Sigma-Aldrich, St. Louis, MO, cat. D2650) at 400-fold the tested concentration and stored at -70 degrees C. Prior to their use, the stock solutions were diluted in fresh medium and the final DMSO concentration in the assay was 0.25% (v/v). All drugs and investigational agents were tested over a range starting from a high concentration at or near the clinical Cmax and decreasing in half-log increments. If the clinical Cmax for an agent had not been determined, the highest concentration tested was 10 microM.
Cell Lines. The patient-derived cancer cell (PDC) lines: 156681-154-R-J1-PDC, 283228-195-R-J1-PDC, 287954-098-R-J1-PDC, 292921-168-R-J2-PDC, 349418-098-R-PDC, 425362-245-T-J1-PDC, 556581-035-R-J1-PDC, and BL0293-F563-PDC were received from the NCI Patient-Derived Models Repository (PDMR, https://pdmr.cancer.gov). The established cell lines HS-SY-2 (RRID:CVCL_8719), MPNST, and SYO-1 (RRID:CVCL_7146) were obtained from the Sloan Kettering Institute. The alveolar soft parts sarcoma cell line ASPS-1 (RRID:CVCL_S738) was established at the NCI and grown from internal seed stocks. The following established cell lines were purchased from the American Type Culture Collection (ATCC, Manassas, VA): G-401 (ATCC, cat. CRL-1441, RRID:CVCL_0270), SW982 (ATCC, cat. HTB-93, RRID:CVCL_1734), VA-ES-BJ (ATCC, cat. CRL-2138, RRID:CVCL_1785), NCI-H719 (ATCC, cat. CRL-5837, RRID:CVCL_1582), NCI-H196 (ATCC, cat. CRL-5823, RRID:CVCL_1509), NCI-H841 (ATCC, cat. CRL-5845, RRID:CVCL_1595), NCI-H1618 (ATCC, cat. CRL-5879, RRID:CVCL_1480), NCI-H1876 (ATCC, cat. CRL-5902, RRID:CVCL_1503), DMS 114 (ATCC, cat. CRL-2066; RRID:CVCL_1174), NCI-H211 (ATCC, cat. CRL-5824; RRID:CVCL_1529), and SW 1271 (ATCC, cat. CRL-2177, RRID:CVCL_1716). The small cell lung cancer cell line COR-L88 was purchased from Sigma-Aldrich (cat. 92031917-1VL, RRID:CVCL_1141). The non-small cell lung cancer cell lines NCI-H226 (RRID:CVCL_1544) and NCI-H322M (RRID:CVCL_1557) were established at the NCI and grown from internal seed stocks. Pooled donor human umbilical vein endothelial cells (HUVEC, Lonza, cat. CC-2519) and human mesenchymal stem cells (hMSC, Lonza, cat. PT-2501) were purchased from Lonza (Walkersville, MD).
Cell Culture. All cells were maintained in an incubator at 37 degrees C and 5% CO2 with 95% humidity. […]

## Cn1ncnc1[C@H]1c2n[nH]c(=O)c3cc(F)cc(c23)N[C@@H]1c1ccc(F)cc1
  IC50: < 9.49 nM, 171 nM [2019-11] and 156 nM [2019-12]

## Cn1nnc2c(C(N)=O)ncn2c1=O
Compound alone 1 µM
  viability, T/C: 22.8, 24.6, 21.6, 82.1, 95.6, 87.2, 88.5, 84.5, 80, 22.5%
Compound alone 100 µM
  viability, T/C: 43.6, 67.5, 19.7, 31.5, 46.8, 45.3, 0.95, 32, 66.5, 34.9%
Run of 11/07/2019
  IC50: < 1 µM, 1.92 µM, 2.14 µM, 1.97 µM, 2.26 µM, 1.77 µM, 1.87 µM

## CC[C@@]1(O)C(=O)OCc2c1cc1n(c2=O)Cc2cc3c(CN(C)C)c(O)ccc3nc2-1
Compound alone 0.003 µM
  viability, T/C: 89.7, 93.5, 89.4, 91.2, 93% [2019-11] and 26.6, 87, 75.8, 100, 89.7% [2019-12]
Compound alone 0.00949 µM
  viability, T/C: 52.1, 35.9, 49.6, 41.1, 51.1% [2019-11] and 16.9, 48.8, 26.5, 40.1, 45.5% [2019-12]
Compound alone 0.03 µM
  viability, T/C: 1.76, 1.33, 1.25, 1.59, 1.74% [2019-11] and 28.8, 5.05, 4.72, 3.43, 3.71% [2019-12]
Compound alone 0.0949 µM
  viability, T/C: 1.26, 1.75, 16.3, 1.85, 1.7% [2019-11] and 30.4, 4.1, 3.54, 4.45, 3.11% [2019-12]
Run of 12/16/2019
  IC50: < 3 nM, 9.14 nM, 5.48 nM, 7.86 nM, 8.44 nM

## COc1cc2c(cc1O)CCNC21CSC2c3c(OC(C)=O)c(C)c4c(c3C(COC1=O)N1C(O)C3Cc5cc(C)c(OC)c(O)c5C(C21)N3C)OCO4 (stereo unspecified)
Compound 94.9 pM
  viability, T/C: 47.9, 63, 96.5, 75.5, 61.6, 59.2, 87, 45.4, 59.1, 65%

## [2H]c1nc(C)nc([2H])c1-c1cc(NC[C@@H](C)c2cccc3c(C(=O)NC)ccnc23)ncn1
  IC50: > 10 µM [2019-11] and < 31.6 nM, > 10 µM [2019-12]
